In the supplement of paper PMC10126150:
Sequences with one replicate were seen in a single cluster, so their values are uncertain.

Tested on: ATP
Assay: switch fluorescence ratio, 500 uM ATP over buffer (Cy3 cluster intensity, sum of 5 cycles each) (fold (ratio)); higher = stronger signal-on switching upon ATP binding; sequences stand for … in TCGTCGGCAGCGTCAGATGTGTATAAGAGACAGTTTTTTTTTTTTTTTTTTTTTTTTT…TC
Conditions: aptamer strand: ATP DNA aptamer (quencher-CACCTGGGGGAGTATTGCGGAGGAAGG + anchor), 100 nM annealed; ATP concentration: 500 uM; one replicate
Procedure, shortened: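 Exposure to 500 uM ATP lasted 15 min at 22 °C before imaging, and a selection-buffer image was taken beforehand, for Cy3-labelled switching-strand clusters on a modified Illumina MiSeq flow-cell annealed to 100 nM quencher-labelled ATP aptamer. Five buffer/ATP cycles were run with NaOH stripping and re-annealing between them. The fluorescence ratio per cluster is summed target-cycle over summed buffer-cycle Cy3 intensity, averaged per switch-domain sequence. Clusters outside 100-1000 RFU were excluded.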

## TTAACGTTTT
  switch fluorescence ratio: 1.02

## TATGGTCAGG
  switch fluorescence ratio: 1

## CCACGGTGCT
  switch fluorescence ratio: 2.15

## GGCTCAGTCG
  switch fluorescence ratio: 0.988

## ACTTGTACTG
  switch fluorescence ratio: 1.13

## ATGGTTGTGG
  switch fluorescence ratio: 1.01

## AAAGAATATA
  switch fluorescence ratio: 0.964

## CTAGGGTATG
  switch fluorescence ratio: 1

## CAGTTGTCTG
  switch fluorescence ratio: 1.01

## TGTATGCTGT
  switch fluorescence ratio: 0.991

## TAGAGTATGG
  switch fluorescence ratio: 0.997

## ATGGTTAACG
  switch fluorescence ratio: 0.992

## GGCCGCCAGT
  switch fluorescence ratio: 1.03

## TGGCATTTTG
  switch fluorescence ratio: 1.01

## CAAATAGTAG
  switch fluorescence ratio: 0.962

## CTTACGTGAC
  switch fluorescence ratio: 1.09

## GCTTTAAAAA
  switch fluorescence ratio: 0.957

## TCATGGTTCA
  switch fluorescence ratio: 1.02

## GGTAATGTTG
  switch fluorescence ratio: 1.01

## CACGGTAGCG
  switch fluorescence ratio: 1.04

## ACTTAGATGG
  switch fluorescence ratio: 1.07

## ACGACTATCC
  switch fluorescence ratio: 1.21

## GCGCGTACGG
  switch fluorescence ratio: 1.04

## TTATTAGGAG
  switch fluorescence ratio: 1.03

## CTAAATTAAC
  switch fluorescence ratio: 1.02

## CAGAATCTTC
  switch fluorescence ratio: 0.993

## ACTCTGTGAC
  switch fluorescence ratio: 2.01

## AGGAGACTC
  switch fluorescence ratio: 1.06

## ATTCAGTACC
  switch fluorescence ratio: 1.04

## TTTTGAACGG
  switch fluorescence ratio: 0.974

## AAATGCGCTA
  switch fluorescence ratio: 1.02

## AGAAGACCTC
  switch fluorescence ratio: 1.08

## TCGGCATAGG
  switch fluorescence ratio: 1.07

## TAGACGGTG
  switch fluorescence ratio: 0.948

## ATGTTTAAGG
  switch fluorescence ratio: 0.943

## CGGCGTGCAC
  switch fluorescence ratio: 1.01

## TTGGCAGTC
  switch fluorescence ratio: 1.34

## CGCAGTCTTC
  switch fluorescence ratio: 1.08

## TTGGATTT
  switch fluorescence ratio: 1.01

## CGTTGATAA
  switch fluorescence ratio: 1.02

## ATCAACCGAG
  switch fluorescence ratio: 1.13

## GAGAGGCCTT
  switch fluorescence ratio: 1.06

## GACGTTAGG
  switch fluorescence ratio: 0.97

## TAATTGTCGT
  switch fluorescence ratio: 1.03

## ACAGGAGGAT
  switch fluorescence ratio: 0.984

## TAAAAAAACA
  switch fluorescence ratio: 0.991

## GCAGCCACA
  switch fluorescence ratio: 1.06

## GTTGCAGACT
  switch fluorescence ratio: 1.15

## GCGCCTCGGA
  switch fluorescence ratio: 1

## ATGAGGCGCG
  switch fluorescence ratio: 0.946

## TTAATTTAGA
  switch fluorescence ratio: 0.936

## TAGTCCGGGT
  switch fluorescence ratio: 0.987

## TTTCCCTTTG
  switch fluorescence ratio: 0.987

## TTCTATCGGG
  switch fluorescence ratio: 0.992

## GCGTTTGGCG
  switch fluorescence ratio: 1.12

## CAATGTAAGC
  switch fluorescence ratio: 1

## GCTATCCATT
  switch fluorescence ratio: 1.05

## GAAGGCATGT
  switch fluorescence ratio: 0.966

## GTTGGATGAA
  switch fluorescence ratio: 0.974

## ACCGCGCGAT
  switch fluorescence ratio: 1.26

## CTTACGTTGG
  switch fluorescence ratio: 1

## TAGGGAATCG
  switch fluorescence ratio: 0.994

## GGGGACCTAA
  switch fluorescence ratio: 1

## GGGCGTTCGT
  switch fluorescence ratio: 0.924

## CGGAATACAG
  switch fluorescence ratio: 1.62

## GGTTCGGGCG
  switch fluorescence ratio: 1.02

## CCCTGGGCGG
  switch fluorescence ratio: 1.77

## ACCTGCATTA
  switch fluorescence ratio: 1.43

## ATTAATGAAT
  switch fluorescence ratio: 1

## AATTGACAGA
  switch fluorescence ratio: 0.999

## TTACAGGGTT
  switch fluorescence ratio: 1.08

## AGTACGATGC
  switch fluorescence ratio: 1.06

## AAAGCAGGGT
  switch fluorescence ratio: 1.4

## CATACACTGC
  switch fluorescence ratio: 1.07

## GGTTAATCGA
  switch fluorescence ratio: 1.01

## AGGGGCACTT
  switch fluorescence ratio: 1.01

## GTCTTAGAGC
  switch fluorescence ratio: 1.02

## CGAGTGGTGC
  switch fluorescence ratio: 1.14

## CTTGCTGATG
  switch fluorescence ratio: 1.01

## CGCAGTGGGC
  switch fluorescence ratio: 1.15

## TTGCCCGCAC
  switch fluorescence ratio: 2.86

## TTTGCAAATC
  switch fluorescence ratio: 1.14

## AAGGAGAGAT
  switch fluorescence ratio: 1.05

## GCGAAATCCT
  switch fluorescence ratio: 1.13

## ACCGTGGGCC
  switch fluorescence ratio: 0.991

## CACGTATAAG
  switch fluorescence ratio: 1

## GCCATAAAAG
  switch fluorescence ratio: 0.962

## CGTCATAGGA
  switch fluorescence ratio: 0.998

## TTGCGATTGA
  switch fluorescence ratio: 0.99

## AGAATCTGTG
  switch fluorescence ratio: 0.999

## CTTCATTAGT
  switch fluorescence ratio: 0.984

## ATCATAAGTG
  switch fluorescence ratio: 1.07

## GACCCAGACA
  switch fluorescence ratio: 1.04

## AAAGCCACCA
  switch fluorescence ratio: 1.03

## GCTTCAGACG
  switch fluorescence ratio: 1.11

## TAGGAATTGG
  switch fluorescence ratio: 1.1

## AGGTTGCCTC
  switch fluorescence ratio: 1.04

## CGCGGATCAT
  switch fluorescence ratio: 1.07

## TGTGGCGCGG
  switch fluorescence ratio: 0.977

## ATCAGATCTA
  switch fluorescence ratio: 0.993

## TGTAGGATCC
  switch fluorescence ratio: 0.986

## TGCGGCATCT
  switch fluorescence ratio: 1.05

## TTTAAGTTAC
  switch fluorescence ratio: 1.07

## GCTGCAAGC
  switch fluorescence ratio: 1.07

## GGAGATAGAA
  switch fluorescence ratio: 1.07

## ATTCAACATT
  switch fluorescence ratio: 1.05

## ACGATGTCAA
  switch fluorescence ratio: 1.09

## GGGTGGTAG
  switch fluorescence ratio: 1.02

## GCTTCGGGCA
  switch fluorescence ratio: 0.954

## GCAGTTTATG
  switch fluorescence ratio: 0.998

## GATTTAAATT
  switch fluorescence ratio: 1

## AGGTTATTTA
  switch fluorescence ratio: 0.973

## GTAAGATCCA
  switch fluorescence ratio: 1

## TCCCGGTGAC
  switch fluorescence ratio: 1.82

## TGGCTGGGAT
  switch fluorescence ratio: 1

## AGAAGCCTGT
  switch fluorescence ratio: 0.965

## AATTATCTTC
  switch fluorescence ratio: 1.11

## CGGCTCTAAC
  switch fluorescence ratio: 1.07

## ACACTGAAAT
  switch fluorescence ratio: 1.04

## AACCCCTGGA
  switch fluorescence ratio: 1.03

## GCTTTTGATT
  switch fluorescence ratio: 0.971

## ACGACCGCT
  switch fluorescence ratio: 1.42

## ATGTATGGTG
  switch fluorescence ratio: 0.987

## ACGCCATGAT
  switch fluorescence ratio: 1.14

## ACCTAGGCGG
  switch fluorescence ratio: 1.04

## GCCAAATATT
  switch fluorescence ratio: 1.01

## TTACAATAG
  switch fluorescence ratio: 1.06

## ATTTAATCGT
  switch fluorescence ratio: 1.06

## CATGGTTAGT
  switch fluorescence ratio: 0.981

## CGTATGAATG
  switch fluorescence ratio: 1.06

## ATACTGGGAG
  switch fluorescence ratio: 0.947

## TTACCTGAGC
  switch fluorescence ratio: 1.11

## TTCCTTGTGT
  switch fluorescence ratio: 1

## CGTAGTGGC
  switch fluorescence ratio: 1.15

## CTAGTTCTGC
  switch fluorescence ratio: 1.07

## TTGTGACACT
  switch fluorescence ratio: 0.962

## CTTGAAATGC
  switch fluorescence ratio: 1.09

## ACCCAGGAAA
  switch fluorescence ratio: 1.06

## TTAATCGCAA
  switch fluorescence ratio: 3.17

## TGCGGTAGTA
  switch fluorescence ratio: 1.02

## ACGACCCGTT
  switch fluorescence ratio: 1.13

## CTTGTGTCCC
  switch fluorescence ratio: 0.999

## ATCGCTTGTG
  switch fluorescence ratio: 0.974

## TGTCGGTGGC
  switch fluorescence ratio: 1.09

## CGCCGTGAA
  switch fluorescence ratio: 0.979

## GCCACCTACC
  switch fluorescence ratio: 1.52

## GCTGCTGCG
  switch fluorescence ratio: 0.943

## AAGGCGGATG
  switch fluorescence ratio: 0.987

## ACTTAGGCGA
  switch fluorescence ratio: 1.05

## TCTCAGCTC
  switch fluorescence ratio: 1.27

## TGAAAAGGAA
  switch fluorescence ratio: 0.995

## TCATGCGCTC
  switch fluorescence ratio: 2.38

## AGCCGGTTGT
  switch fluorescence ratio: 0.974

## GGACCAACTA
  switch fluorescence ratio: 0.997

## GTCTTCAATT
  switch fluorescence ratio: 0.982

## CGCTAGACCC
  switch fluorescence ratio: 1.46

## ACGGCGCCCC
  switch fluorescence ratio: 1.03
